Test results: publication PMC3699067 (Human Molecular Genetics, 2013)

Molecular target: the molecule itself
Experiment: cross-linking

B1: TDP-43([…]), untagged C-terminal deletion fragment (domain or fragment)
chain: not shown
stoichiometry N: 2
